Reference: the supplement of paper PMC7826260
The list shows a part of the results. Each Rep nickase domain was tested in vitro on the same pool of single strands for 1 h at 37 °C with 3 µM enzyme; only the middle of the 90-letter strands is printed. A value is the log2 ratio of uncut reads to the pool without enzyme; the lower, the more was cut; hits are not called. Because reads are shares of a total, they shift together; values above 0 arise when much of the pool is cut.

Experiments:
Assay in all cases: uncleaved DNA left, log2 of reads against the no-enzyme library (log2 ratio); higher = less cleavage (more negative = more Rep cleavage of the k-mer); sequences stand for … in CTCGTCCG…ACCGGAGA
[1] = tested on: T1, Rep nickase domain of Muscovy duck circovirus
T1 sequence (residues 1-111 of Rep, tag left off): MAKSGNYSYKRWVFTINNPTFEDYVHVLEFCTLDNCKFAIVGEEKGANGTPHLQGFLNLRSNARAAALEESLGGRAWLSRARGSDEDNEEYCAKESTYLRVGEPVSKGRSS
Protocol: (§1)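 A pool of 90-nt single-stranded DNAs with seven random bases just before the constant AC of the nick site (name = the seven bases) was cut by 3 µM recombinant His6-SUMO-tagged Rep nickase domain (300 nM DNA, 50 mM HEPES pH 8.0, 50 mM NaCl, 1 mM MnCl2, 1 h, 37 °C, three replicates). Uncut DNA was amplified and sequenced.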

[2] = tested on: T2, Rep nickase domain of banana bunchy top virus
T2 sequence (residues 1-94 of Rep, tag left off): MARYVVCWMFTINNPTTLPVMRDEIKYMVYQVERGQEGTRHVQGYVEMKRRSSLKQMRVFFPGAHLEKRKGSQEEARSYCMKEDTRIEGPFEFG
Protocol: as §1

[3] = tested on: T3, Rep nickase domain of cabbage leaf curl virus
T3 sequence (residues 1-116 of Rep, tag left off): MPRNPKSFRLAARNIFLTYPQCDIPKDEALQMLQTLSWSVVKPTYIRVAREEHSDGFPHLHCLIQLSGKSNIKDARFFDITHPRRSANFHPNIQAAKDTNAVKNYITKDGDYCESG
Protocol: as §1

[4] = tested on: T4, Rep nickase domain of chickpea chlorotic dwarf virus
T4 sequence (residues 1-124 of Rep, tag left off): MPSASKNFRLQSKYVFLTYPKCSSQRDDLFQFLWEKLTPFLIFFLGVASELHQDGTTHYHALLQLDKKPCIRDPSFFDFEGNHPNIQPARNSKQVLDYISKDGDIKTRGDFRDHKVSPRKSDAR
Protocol: as §1

[5] = tested on: T5, Rep nickase domain of faba bean necrotic yellows virus
T5 sequence (residues 1-98 of Rep, tag left off): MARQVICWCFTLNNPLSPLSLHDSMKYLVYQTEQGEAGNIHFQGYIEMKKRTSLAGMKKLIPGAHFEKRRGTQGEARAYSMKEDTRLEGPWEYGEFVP
Protocol: as §1

[6] = tested on: T6, Rep nickase domain of maize striate mosaic virus
T6 sequence (residues 1-117 of Rep, tag left off): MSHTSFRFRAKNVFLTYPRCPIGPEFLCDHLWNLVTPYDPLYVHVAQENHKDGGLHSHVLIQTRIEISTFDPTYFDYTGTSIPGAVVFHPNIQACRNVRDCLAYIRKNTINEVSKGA
Protocol: as §1

[7] = tested on: T7, Rep nickase domain of porcine circovirus 2
T7 sequence (residues 2-116 of Rep, tag left off): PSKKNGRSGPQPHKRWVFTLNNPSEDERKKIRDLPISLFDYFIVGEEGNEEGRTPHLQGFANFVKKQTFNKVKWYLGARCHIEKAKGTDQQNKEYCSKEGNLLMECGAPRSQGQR
Protocol: as §1

[8] = tested on: T8, Rep nickase domain of tomato golden mosaic virus
T8 sequence (residues 1-124 of Rep, tag left off): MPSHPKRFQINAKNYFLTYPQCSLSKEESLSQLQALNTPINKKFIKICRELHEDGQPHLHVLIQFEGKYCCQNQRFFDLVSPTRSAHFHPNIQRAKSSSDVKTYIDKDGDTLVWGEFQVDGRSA
Protocol: as §1

[9] = tested on: T9, Rep nickase domain of tomato yellow leaf curl virus
T9 sequence (residues 1-136 of Rep, tag left off): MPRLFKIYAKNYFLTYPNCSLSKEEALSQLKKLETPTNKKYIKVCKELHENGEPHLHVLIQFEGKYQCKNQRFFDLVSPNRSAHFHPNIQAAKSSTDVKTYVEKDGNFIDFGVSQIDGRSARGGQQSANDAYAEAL
Protocol: as §1

[10] = tested on: T10, Rep nickase domain of wheat dwarf virus
T10 sequence (residues 1-137 of Rep, tag left off): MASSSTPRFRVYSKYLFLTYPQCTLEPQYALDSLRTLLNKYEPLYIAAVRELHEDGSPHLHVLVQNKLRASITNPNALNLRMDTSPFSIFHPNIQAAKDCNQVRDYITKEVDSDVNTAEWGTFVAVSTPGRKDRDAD
Protocol: as §1

Sequence | uncleaved DNA left (log2) [1] | uncleaved DNA left (log2) [2] | uncleaved DNA left (log2) [3] | uncleaved DNA left (log2) [4] | uncleaved DNA left (log2) [5] | uncleaved DNA left (log2) [6] | uncleaved DNA left (log2) [7] | uncleaved DNA left (log2) [8] | uncleaved DNA left (log2) [9] | uncleaved DNA left (log2) [10]
GAGGCCT | 0.0606 | 0.186 | 0.683 | 0.74 | 0.142 | 1.82 | -0.805 | 0.188 | 0.13 | 0.207
CAACTGC | 0.0077 | 0.0526 | -0.29 | -0.343 | -0.0372 | -0.744 | 0.0812 | -0.0791 | -0.0152 | 0.00659
TCTCGCA | 0.0111 | 0.0871 | -0.372 | -0.779 | 0.00932 | -0.987 | 0.0212 | 0.0336 | 0.0705 | -0.0676
TGACCTC | -0.0217 | -0.00777 | 0.114 | 0.459 | -0.0618 | 1.17 | 0.0828 | 0.0402 | 0.0374 | 0.11
AGGATTA | -0.0216 | 0.0617 | -0.00818 | 0.107 | -0.0286 | 0.738 | -0.217 | -0.0192 | -0.127 | 0.0384
GTTGGGC | 0.0707 | 0.149 | 0.547 | 1.14 | 0.0197 | 1.28 | 0.267 | 0.216 | 0.0805 | 0.0847
TGGAACC | 0.0295 | 0.112 | 0.51 | 0.93 | 0.0259 | 1.35 | -0.0592 | 0.0647 | 0.222 | 0.117
TGACTCA | 0.0878 | 0.0588 | 0.258 | 0.117 | 0.0275 | 0.739 | 0.0758 | 0.000935 | 0.0564 | 0.136
AATACGG | 0.0204 | 0.127 | 0.556 | 1.38 | 0.102 | 1.68 | 0.202 | 0.171 | -0.0212 | 0.109
AGGGGAT | 0.102 | 0.0774 | 0.323 | 1.7 | 0.0909 | 1.94 | 0.249 | 0.151 | -0.173 | 0.0855
TACACTA | -0.0224 | 0.0167 | -0.278 | -2.69 | 0.0516 | -0.642 | -0.142 | -0.00064 | 0.0458 | 0.0613
CGTGGCG | 0.0991 | 0.0784 | -0.458 | 0.603 | 0.145 | -0.153 | 0.19 | 0.055 | 0.289 | 0.0733
GTTCAAG | 0.0172 | 0.0467 | -0.0934 | -0.129 | -0.062 | -0.676 | 0.0993 | 0.0336 | 0.087 | 0.057
GTTTTGA | 0.0769 | 0.0838 | 0.402 | 0.952 | 0.0255 | 1.77 | 0.248 | 0.127 | 0.0932 | 0.123
ACGAACT | -0.0664 | -0.0577 | -0.447 | -2.53 | -0.145 | -0.451 | -0.149 | -0.0567 | -0.328 | -0.069
TTGAGTT | 0.00956 | -0.137 | -0.354 | -1.96 | -0.242 | -0.882 | -0.91 | -0.159 | -0.0625 | -0.0851
CGAGCGT | -0.00258 | 0.0822 | -0.0284 | 0.186 | 0.0588 | -0.177 | 0.105 | 0.155 | 0.0485 | 0.0166
GGTCAAG | 0.151 | 0.139 | 0.0937 | 0.314 | 0.0584 | -0.198 | 0.209 | 0.0494 | 0.119 | 0.109
TTCCAAA | 0.0586 | -0.0604 | 0.254 | 0.28 | -0.0212 | -0.0596 | 0.071 | -0.16 | 0.0808 | 0.102
AGATGGT | -0.246 | 0.0192 | -0.0389 | 0.522 | -0.0824 | 1.09 | -1.6 | 0.101 | -0.105 | -0.137
CCAGGCC | -0.063 | -0.0484 | 0.0895 | 0.218 | -0.196 | -0.313 | -0.144 | -0.0276 | 0.0799 | -0.054
TATTGTT | -3.89 | -3.71 | -3.52 | -3.16 | -2.7 | -2.39 | -4.44 | -3.04 | 0.0258 | -3.21
AGTCTAA | 0.0535 | 0.022 | 0.0794 | 0.0722 | -0.0332 | 0.0423 | -1.45 | 0.0979 | 0.0479 | 0.0661
GGCTACT | -0.515 | 0.0796 | 0.345 | 0.477 | -0.00194 | 1.86 | -2.5 | 0.0119 | 0.18 | 0.067
TCCGTTC | -0.078 | -0.244 | 0.0377 | -0.234 | -0.056 | 0.0973 | -0.0465 | -0.165 | -0.196 | -0.182
TTGGCAA | 0.116 | 0.0802 | 0.262 | 0.605 | 0.102 | 0.39 | 0.157 | 0.0192 | 0.0279 | 0.144
GGAATTC | 0.0446 | 0.0207 | 0.626 | 1.59 | -0.0174 | 1.94 | 0.084 | -0.0285 | 0.0932 | 0.122
TATGCTC | -0.0974 | -0.192 | -0.456 | -1.64 | -0.216 | -1.12 | -0.18 | -0.229 | -0.0819 | -0.157
TGTTACA | -0.431 | -0.0879 | -2.38 | -1.98 | -0.186 | 0.191 | -2.97 | -1.94 | 0.0921 | -2.01
TCTTTCT | -1.7 | -0.242 | -0.191 | -2.23 | -0.161 | -0.921 | -2.78 | -0.108 | -0.184 | -0.228
